According to patent US20190367516A1 (Bayer Pharma Aktiengesellschaft, priority 2015, published 2019):

molecular target: T1, human M2 receptor (Homo sapiens, UniProt P08172); details: M2-GIRK1/4 activation test; boosting of the acetylcholine effect at an EC20 acetylcholine concentration
T1 sequence (P08172 1-466): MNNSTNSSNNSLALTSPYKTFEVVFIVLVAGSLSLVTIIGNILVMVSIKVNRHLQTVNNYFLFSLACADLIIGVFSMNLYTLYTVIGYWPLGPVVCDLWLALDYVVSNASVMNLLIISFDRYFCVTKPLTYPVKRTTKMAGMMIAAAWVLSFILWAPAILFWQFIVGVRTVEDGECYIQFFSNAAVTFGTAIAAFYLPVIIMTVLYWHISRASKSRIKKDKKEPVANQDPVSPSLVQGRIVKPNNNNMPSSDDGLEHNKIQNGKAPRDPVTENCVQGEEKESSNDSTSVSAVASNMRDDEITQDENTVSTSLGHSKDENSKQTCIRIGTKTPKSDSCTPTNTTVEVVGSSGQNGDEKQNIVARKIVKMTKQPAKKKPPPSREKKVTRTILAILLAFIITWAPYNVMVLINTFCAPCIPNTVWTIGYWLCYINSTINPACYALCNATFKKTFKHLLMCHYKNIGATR

Structure (SMILES) | Efficiency [%]
CCC(NC(=O)c1cn(-c2ccc(F)cc2F)c2nc(N3CCN(C(=O)OC)CC3)ccc2c1=O)C(F)(F)F (single isomer, unassigned; enantiomer b) [Example 25, ent-Methyl 4-{8-(2,4-difluorophenyl)-5-oxo-6-[(1,1,1-trifluorobutan-2-yl)carbamoyl]-5,8-dihydro-1,8-naphthyridin-2-yl}piperazine-1-carboxylate (Enantiomer B)] | 100.0

same assay, conditions: read-out: Efficiency, M2-GIRK1/4 activation test; boosting of the acetylcholine effect at an EC20 acetylcholine concentration

Structure (SMILES) | Emax [%]
CN(C)c1ccc2c(=O)c(C(=O)NC(C(C)(C)C)C(F)(F)F)cn(-c3ccc(F)cc3F)c2n1 (stereo in doubt) [Example 132, 1-(2,4-Difluorophenyl)-7-(dimethylamino)-4-oxo-N-[(2S)-1,1,1-trifluoro-3,3-dimethylbutan-2-yl]-1,4-dihydro-1,8-naphthyridine-3-carboxamide] | 98
CCC(NC(=O)c1cn(-c2ccc(F)cc2F)c2nc(N3CCC(O)C3)ccc2c1=O)C(F)(F)F (stereo in doubt) [Example 218, 1-(2,4-Difluorophenyl)-7-[3-hydroxypyrrolidin-1-yl]-4-oxo-N-[(2S)-1,1,1-trifluorobutan-2-yl]-1,4-dihydro-1,8-naphthyridine-3-carboxamide] | 93.5
CC(C)(C)C(NC(=O)c1cn(-c2c(F)cc(F)cc2F)c2nc(N3CCNC3=O)ccc2c1=O)C(F)(F)F (stereo in doubt) [Example 360, 4-Oxo-7-(2-oxoimidazolidin-1-yl)-N-[(2S)-1,1,1-trifluoro-3,3-dimethylbutan-2-yl]-1-(2,4,6-trifluorophenyl)-1,4-dihydro-1,8-naphthyridine-3-carboxamide] | 100
O=C(NC12CC3CC(CC(C3)C1)C2)c1cn(-c2ccc(F)cc2F)c2nc(N3CCCC(F)(F)C3)ccc2c1=O [Example 1, 1-(2,4-Difluorophenyl)-7-(3,3-difluoropiperidin-1-yl)-4-oxo-N-(tricyclo[3.3.1.1^3,7]dec-1-yl)-1,4-dihydro-1,8-naphthyridine-3-carboxamide] | 97.5
O=C(NC12CC3CC(CC(C3)C1)C2)c1cn(-c2ccc(F)cc2F)c2nc(N3CC4C(C3)C4(F)F)ccc2c1=O (stereo not drawn) [Example 2, 7-(6,6-Difluoro-3-azabicylco[3.1.0]hex-3-yl)-1-(2,4-difluorophenyl)-4-oxo-N-(tricyclo[3.3.1.1^3,7]dec-1-yl)-1,4-dihydro-1,8-naphthyridine-3-carboxamide] | 100
O=C(NC12CC3CC(CC(C3)C1)C2)c1cn(-c2ccc(F)cc2F)c2nc(N3CC[C@@H](F)[C@H](O)C3)ccc2c1=O [Example 3, 1-(2,4-Difluorophenyl)-7-[(3R,4R)-4-fluoro-3-hydroxypiperidin-1-yl]-4-oxo-N-(tricyclo[3.3.1.1^3,7]dec-1-yl)-1,4-dihydro-1,8-naphthyridine-3-carboxamide] | 99.8
COC(=O)N1CCN(c2ccc3c(=O)c(C(=O)NC45CC6CC(CC(C6)C4)C5)cn(-c4ccc(F)cc4F)c3n2)CC1 [Example 4, Methyl 4-[8-(2,4-difluorophenyl)-5-oxo-6-(tricyclo[3.3.1.1^3,7]dec-1-ylcarbamoyl)-5,8-dihydro-1,8-naphthyridin-2-yl]piperazine-1-carboxylate] | 99.8
O=C(NC12CC3CC(CC(C3)C1)C2)c1cn(-c2ccc(F)cc2F)c2nc(N3CCC(F)CC3)ccc2c1=O [Example 5, 1-(2,4-Difluorophenyl)-7-(4-fluoropiperidin-1-yl)-4-oxo-N-(tricyclo[3.3.1.1^3,7]dec-1-yl)-1,4-dihydro-1,8-naphthyridine-3-carboxamide] | 98.7
O=C(NC12CC3CC(CC(C3)C1)C2)c1cn(-c2ccc(F)cc2F)c2nc(N3CCC(O)(O)C(F)(F)C3)ccc2c1=O [Example 6, 7-(3,3-Difluoro-4,4-dihydroxypiperidin-1-yl)-1-(2,4-difluorophenyl)-4-oxo-N-(tricyclo[3.3.1.1^3,7]dec-1-yl)-1,4-dihydro-1,8-naphthyridine-3-carboxamide] | 98.8
O=C(NC12CC3CC(CC(C3)C1)C2)c1cn(-c2ccc(F)cc2F)c2nc(N3CCC(O)(O)[C@H](F)C3)ccc2c1=O [Example 7, 1-(2,4-Difluorophenyl)-7-[(3R)-3-fluoro-4,4-dihydroxypiperidin-1-yl]-4-oxo-N-(tricyclo[3.3.1.1^3,7]dec-1-yl)-1,4-dihydro-1,8-naphthyridine-3-carboxamide] | 100
O=C(NC12CC3CC(CC(C3)C1)C2)c1cn(-c2ccc(F)cc2F)c2nc(N3CCCCC3)ccc2c1=O [Example 8, 1-(2,4-Difluorophenyl)-4-oxo-7-(piperidin-1-yl)-N-(tricyclo[3.3.1.1^3,7]dec-1-yl)-1,4-dihydro-1,8-naphthyridine-3-carboxamide] | 98
N#CC1CCCN(c2ccc3c(=O)c(C(=O)NC45CC6CC(CC(C6)C4)C5)cn(-c4ccc(F)cc4F)c3n2)C1 (stereo not drawn) [Example 10, 7-(3-Cyanopiperidin-1-yl)-1-(2,4-difluorophenyl)-4-oxo-N-(tricyclo[3.3.1.1^3,7]dec-1-yl)-1,4-dihydro-1,8-naphthyridine-3-carboxamide] | 98.5
C[C@@H]1C[C@H](F)CN1c1ccc2c(=O)c(C(=O)NC34CC5CC(CC(C5)C3)C4)cn(-c3ccc(F)cc3F)c2n1 [Example 11, 1-(2,4-Difluorophenyl)-7-[(2R,4S)-4-fluoro-2-methylpyrrolidin-1-yl]-4-oxo-N-(tricyclo[3.3.1.1^3,7]dec-1-yl)-1,4-dihydro-1,8-naphthyridine-3-carboxamide] | 99.3
NC(=O)N1CCN(c2ccc3c(=O)c(C(=O)NC45CC6CC(CC(C6)C4)C5)cn(-c4ccc(F)cc4F)c3n2)CC1 [Example 12, 7-(4-Carbamoylpiperazin-1-yl)-1-(2,4-difluorophenyl)-4-oxo-N-(tricyclo[3.3.1.1^3,7]dec-1-yl)-1,4-dihydro-1,8-naphthyridine-3-carboxamide] | 95
O=C(NC12CC3CC(CC(C3)C1)C2)c1cn(-c2ccc(F)cc2F)c2nc(N3CCC4(C3)CC4(F)F)ccc2c1=O (stereo not drawn) [Example 13, 7-(1,1-Difluoro-5-azaspiro[2.4]hept-5-yl)-1-(2,4-difluorophenyl)-4-oxo-N-(tricyclo[3.3.1.1^3,7]dec-1-yl)-1,4-dihydro-1,8-naphthyridine-3-carboxamide] | 95.8
O=C(NC12CC3CC(CC(C3)C1)C2)c1cn(-c2ccc(F)cc2F)c2nc(N3CCCC[C@H]3CO)ccc2c1=O [Example 15, 1-(2,4-Difluorophenyl)-7-[(2S)-2-(hydroxymethyl)piperidin-1-yl]-4-oxo-N-(tricyclo[3.3.1.1^3,7]dec-1-yl)-1,4-dihydro-1,8-naphthyridine-3-carboxamide] | 90.5
O=C(NC12CC3CC(CC(C3)C1)C2)c1cn(-c2ccc(F)cc2F)c2nc(N3CCC(F)(CO)CC3)ccc2c1=O [Example 16, 1-(2,4-Difluorophenyl)-7-[4-fluoro-4-(hydroxymethyl)piperidin-1-yl]-4-oxo-N-(tricyclo[3.3.1.1^3,7]dec-1-yl)-1,4-dihydro-1,8-naphthyridine-3-carboxamide] | 97.3
O=C(NC12CC3CC(CC(C3)C1)C2)c1cn(-c2ccc(F)cc2F)c2nc(N3CCCC(CCO)C3)ccc2c1=O (stereo not drawn) [Example 17, 1-(2,4-Difluorophenyl)-7-[3-(2-hydroxyethyl)piperidin-1-yl]-4-oxo-N-(tricyclo[3.3.1.1^3,7]dec-1-yl)-1,4-dihydro-1,8-naphthyridine-3-carboxamide] | 97.3
O=C1CN(c2ccc3c(=O)c(C(=O)NC45CC6CC(CC(C6)C4)C5)cn(-c4ccc(F)cc4F)c3n2)CCN1 [Example 18, 1-(2,4-Difluorophenyl)-4-oxo-7-(3-oxopiperazin-1-yl)-N-(tricyclo[3.3.1.1^3,7]dec-1-yl)-1,4-dihydro-1,8-naphthyridine-3-carboxamide] | 97.3
CO[C@@H]1CCN(c2ccc3c(=O)c(C(=O)NC45CCC(C)(CC4)CC5)cn(-c4ccc(F)cc4F)c3n2)C1 [Example 19, 1-(2,4-Difluorophenyl)-7-[(3R)-3-methoxypyrrolidin-1-yl]-N-(4-methylbicyclo[2.2.2]oct-1-yl)-4-oxo-1,4-dihydro-1,8-naphthyridine-3-carboxamide] | 95
CC12CCC(NC(=O)c3cn(-c4ccc(F)cc4F)c4nc(N5CC[C@@H](O)C5)ccc4c3=O)(CC1)CC2 [Example 20, 1-(2,4-Difluorophenyl)-7-[(3R)-3-hydroxypyrrolidin-1-yl]-N-(4-methylbicyclo[2.2.2]oct-1-yl)-4-oxo-1,4-dihydro-1,8-naphthyridine-3-carboxamide] | 98.4
CC(C)(NC(=O)c1cn(-c2ccc(F)cc2F)c2nc(N3CC[C@@H](O)C3)ccc2c1=O)c1c(F)cccc1F [Example 21, 1-(2,4-Difluorophenyl)-N-[2-(2,6-difluorophenyl)propan-2-yl]-7-[(3R)-3-hydroxypyrrolidin-1-yl]-4-oxo-1,4-dihydro-1,8-naphthyridine-3-carboxamide] | 100
CO[C@@H]1CCN(c2ccc3c(=O)c(C(=O)NC(C)(C)c4c(F)cccc4F)cn(-c4ccc(F)cc4F)c3n2)C1 [Example 22, 1-(2,4-Difluorophenyl)-N-[2-(2,6-difluorophenyl)propan-2-yl]-7-[(3R)-3-methoxypyrrolidin-1-yl]-4-oxo-1,4-dihydro-1,8-naphthyridine-3-carboxamide] | 97.7
